Where “and” joins values, the source holds several entries; their conditions need not be identical. Identical values can stand only once. The whole screen tested about 48,000 compounds, of which about 1,200 (2.5%) were called active. Roughly 2% stayed inconclusive and do not appear here.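 The calls were made as follows: active = activation of at least 60% and not above a set upper limit (about 1 call in 100 departs from these limits); inconclusive = activation of 40% to 60%, or above that upper limit; inactive = activation under 40%.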 This is one part of the list.
biological target: Probable G-protein coupled receptor 32 (Homo sapiens) (UniProt O75388); test: qHTS for Agonists of Human Resolvin D1 Receptor DRV1; details: CHO-K1 GPR32 beta-arrestin PathHunter luminescence, 90 min; at 76.9 µM; active compounds read high; zero percent set by DMSO-only wells; also: 0% is about no effect
UniProt O75388, sequence (O75388 whole entry, looked up): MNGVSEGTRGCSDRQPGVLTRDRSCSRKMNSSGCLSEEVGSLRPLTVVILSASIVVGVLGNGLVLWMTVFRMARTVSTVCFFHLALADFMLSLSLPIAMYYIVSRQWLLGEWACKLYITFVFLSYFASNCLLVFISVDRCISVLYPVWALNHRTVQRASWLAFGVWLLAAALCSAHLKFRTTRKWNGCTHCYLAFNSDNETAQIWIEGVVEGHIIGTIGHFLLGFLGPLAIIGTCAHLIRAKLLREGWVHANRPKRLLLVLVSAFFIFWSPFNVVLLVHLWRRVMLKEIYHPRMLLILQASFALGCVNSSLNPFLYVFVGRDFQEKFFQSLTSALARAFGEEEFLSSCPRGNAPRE
How it was run: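 CHO-K1 cells stably expressing ProLink-tagged GPR32 and Enzyme Activator-tagged beta-arrestin were seeded at 2,500 cells/well overnight, exposed to compounds for 90 min at 37 °C, then read by beta-Gal complementation chemiluminescence after 1 h detection reagent.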

Row | SMILES | activation
1 | CCc1ccc(NC(=O)CCS(=O)(=O)c2ccc3c(c2)oc(=O)n3C)cc1 | inactive: 28.9%
2 | CCC(Cc1ccccc1)NC(=O)c1csc2c1CCCCC2 (configuration not stated) | inactive: 1.5%
3 | COc1cccc(Cn2c(SCc3ccc(C(=O)N4CCC(C)CC4)cc3)nc3ccncc32)c1 | inactive: -41%
4 | CC1(C)O[C@@H]2C[C@H]3[C@@H]4C[C@H](F)C5=CC(=O)CC[C@]5(C)[C@H]4[C@@H](O)C[C@]3(C)[C@]2(C(=O)CO)O1 | inactive: -49.9%
5 | COc1cc(NC(=O)CCCSc2nc(-c3ccco3)cc(C(F)(F)F)n2)cc(OC)c1OC | inactive: 11.6%
6 | C[C@H]1C[C@H]2[C@@H]3CCC4=CC(=O)C=C[C@]4(C)[C@H]3C(=O)C[C@]2(C)[C@@]1(O)C(=O)CO | inactive: -12.4%
7 | COc1ccc2c(C)cc(SCC(=O)Nc3nsc(-c4ccc(C(C)(C)C)cc4)n3)nc2c1 | inactive: 12.6%
8 | CC(C)(C)OC(=O)N1CCC(c2c(C(=O)NCCN3CCOCC3)cnn2-c2ccccc2)CC1 | inactive: -0.589%
9 | COc1ccc2oc(-c3ccc(C)c(NC(=O)c4ccc(N5CCCCC5)c([N+](=O)[O-])c4)c3)nc2c1 | inactive: -9.83%
10 | CCOC(=O)c1c(Nc2ccccc2)nnc(-c2ccccc2)c1-c1ccccc1 | inactive: -15.6%
11 | O=C(Cn1c(=O)oc2ccccc21)NCc1ccc(Cl)cc1 | inactive: -12.3%
12 | CCN(c1ccccc1)S(=O)(=O)c1cc(C(=O)Nc2ccc(Br)cc2)ccc1F | inactive: 1.14%
13 | COc1ccc(CNC(=O)CN2CCSc3ccccc32)c(OC)c1 | inactive: 15.4%
14 | CCN(CC)C(=O)Cn1c(SCC(=O)Nc2ccc(C)c(C)c2)nc2ccccc21 | inactive: -1.3%
15 | COc1ccccc1NC(=O)C1=C(C)Nc2ncnn2C1c1ccc[nH]1 (configuration not stated) | inactive: 34.8%
16 | CN1CCN(c2ncc3c(n2)CCN(Cc2ccccc2Cl)C3)CC1 | inactive: -26.2%
17 | Cc1ccc(-n2ncc3c(NCCc4ccccc4)ncnc32)cc1 | active: 93.5%
18 | CCOc1ccc(S(=O)(=O)n2nc(C)c(S(=O)(=O)N3CCCCCC3)c2C)cc1 | inactive: -4.57%
19 | Cc1cc2oc(C(=O)N(Cc3ccccc3)C3CCS(=O)(=O)C3)cc(=O)c2cc1C (configuration not stated) | inactive: -18.4%
20 | CCc1ccc(-n2c(=O)c3cccnc3n2CC(=O)N(CC)c2cccc(C)c2)cc1 | inactive: -40.3%
21 | COc1cccc(C(=O)Nc2ccc3c(c2)CCCN3C(=O)c2cccs2)c1OC | inactive: -12.7%

Row | SMILES | activation
22 | Cc1ccc(NC(=O)CN2C(=O)C(c3ccccc3)=NC2(C)C)cc1C | inactive: -30.2%
23 | Cc1ccccc1C(=O)Nc1ccccc1C(=O)OCc1cc(=O)n2nc(C3CC3)sc2n1 | inactive: 8.54%
24 | Cc1cc(-c2nc3ncccc3o2)ccc1NC(=O)COc1ccc(C(C)(C)C)cc1 | inactive: 19.6%
25 | CCc1ccc(NC(=O)CSc2nnc(-c3nonc3NC(C)=O)n2-c2ccccc2)cc1 | inactive: -16.9%
26 | Cc1c2cnn(-c3ccccc3)c(=O)c2c(C)n1CC(=O)NCc1ccc(Cl)cc1 | inactive: 24.7%
27 | Cc1[nH]c(C)c(Cl)c(=O)c1Cl | inactive: 0.369%
28 | CCOc1ccc(Nc2c(S(=O)(=O)c3ccc(C)cc3)cnc3ccccc23)cc1 | inactive: -41.6%
29 | CCOC(=O)c1ccc(N2C(=O)c3[nH]nc(-c4ccc(OC)cc4)c3C2c2ccc(C)cc2)cc1 (configuration not stated) | inactive: 9.46%
30 | CCOCCCNC(=O)c1c(NC(=O)c2cc(=O)c3cc(C)c(C)cc3o2)sc2c1CCC2 | inactive: -1.85%
31 | CCOc1ccc(N2CC(c3nc4ccccc4n3CCC3CCCCC3)CC2=O)cc1 (configuration not stated) | inactive: 4.69%
32 | COc1ccc(CN2C(=O)N(c3ccc(F)cc3)C(=O)C2CC(=O)Nc2ccccc2)cc1 (configuration not stated) | inactive: -3.4%
33 | CCn1c(=O)cc(OCC(=O)NCc2ccc(F)cc2Cl)c2ccccc21 | inactive: 6.73%
34 | CCCNC(=O)C1CCN(c2cc(C)nc3c(-c4ccc(OC)c(OC)c4)c(C)nn23)CC1 | inactive: 13.7%
35 | O=C1CN(C(=O)c2ccccc2)C(c2ccc(F)cc2)c2cc(Br)ccc2N1 (configuration not stated) | inactive: -12.9%
36 | COc1ccc2sc(N(Cc3cccnc3)C(=O)c3ccco3)nc2c1 | inactive: -21.3%
37 | Cc1ccc(C)c(NC(=O)CSc2nncn3c2cc2sccc23)c1 | inactive: -8.43%
38 | CCc1cccc(C)c1NC(=O)Nc1csc2c1CCCC2 | inactive: -21.5%
39 | Cc1oc(-c2ccc(Cl)cc2)nc1CSc1nnc(C)n2c1cc1sccc12 | inactive: -4.21%
40 | O=C1N=C(O)CN1/N=C/c1ccc(-c2ccc([N+](=O)[O-])cc2)o1 | inactive: -25.7% and inactive: 9.29%
41 | Cc1ccc(CCNc2nc3ccccc3c3nc(-c4ccccc4)nn23)cc1 | inactive: 8.4%
42 | COc1ccc(-c2noc(-c3ccc(NC4CCCCC4)c([N+](=O)[O-])c3)n2)cc1OC | inactive: 13.2%

Row | SMILES | activation
43 | Cc1cccc(CS(=O)(=O)CC2Nc3ccc(C(=O)NCc4ccccc4Cl)cc3NC2=O)c1 (configuration not stated) | inactive: -13.7%
44 | COC(=O)c1cc(NC(=O)Cn2ncc3c2-c2ccccc2OC3)cc(C(=O)OC)c1 | inactive: -37.9%
45 | Cc1ccc(-n2c(=O)c3c(C)c(C)sc3n(CC(=O)c3ccc(Cl)cc3)c2=O)cc1C | inactive: -15.3%
46 | CCCn1c2ccccc2c2cnn(CC(=O)N(CCCOC(C)C)Cc3ccco3)c(=O)c21 | inactive: 9.92%
47 | COc1cc(Nc2ncnc3onc(-c4ccc(Cl)cc4)c23)cc(OC)c1 | inactive: 33.4%
48 | COc1cc(C(=O)Nc2ccc(OCc3cc(=O)n4ccc(C)cc4n3)cc2)cc(OC)c1OC | inactive: 4.48%
49 | N#Cc1ccccc1CSc1nnc(-c2ccccc2)o1 | inactive: -1.15%
50 | Cc1ccn2c(Nc3ccc4c(c3)OCO4)c(-c3ccco3)nc2c1 | inactive: -5.6%
51 | N#Cc1c(C(F)(F)F)cc(-c2cccs2)nc1SCC(=O)Nc1ccc(Cl)cc1 | inactive: -11.1%
52 | O=C(Cn1c(=O)n(Cc2ccc(F)cc2)c(=O)c2sc3ccccc3c21)NCc1ccccc1Cl | inactive: 0.161%
53 | COc1ccc(N2CCN(C(CNS(=O)(=O)c3c(C)cc(C)cc3C)c3ccco3)CC2)cc1 (configuration not stated) | inactive: -30.9%
54 | Cc1cccc(N2CCN(S(=O)(=O)c3c(C)[nH]c(=O)[nH]c3=O)CC2)c1C | inactive: 5.29%
55 | COc1ccc(NC(=O)c2c(C)oc3ccc(O)c(CN4CCCC(C)C4)c23)cc1Cl (configuration not stated) | inactive: -21.8%
56 | Cc1ccc(-n2ncc(C(=O)N3CCc4ccccc4C3)c2C2CCN(C(=O)OC(C)(C)C)CC2)cc1C | inactive: -13.9%
57 | Cc1ccc(C)c(CN2C(=O)c3ccccc3Sc3ccc(C(=O)NC4CCCC4)cc32)c1 | inactive: -3.57%
58 | Cc1cc(C)c(C#N)c(SCC(=O)Nc2ccccc2C#N)n1 | inactive: 6.61%
59 | Cc1ccc(N2CCN(C(=O)CCc3c(C)nc4ncnn4c3C)CC2)c(C)c1 | inactive: 16.9%
60 | COc1ccccc1-c1noc(-c2ccc(NCCc3ccccc3)c([N+](=O)[O-])c2)n1 | inactive: 2.24%
61 | CCS(=O)(=O)c1ncc(Cl)c(C(=O)N(Cc2ccccc2)Cc2ccco2)n1 | inactive: -8.27%
62 | COc1ccc(-c2nc(CN3CCC(C(=O)NCCN(CC(C)C)CC(C)C)CC3)c(C)o2)cc1OC | inactive: -2.75%
63 | CC(C)(C)C(=O)OCc1cc(=O)n2nc(C3CCCCC3)sc2n1 | active: 79.1%

Row | SMILES | activation
64 | COc1cccc(CNC(=O)CSc2ncc(S(=O)(=O)c3ccc(C)c(Cl)c3)c(=O)[nH]2)c1 | inactive: -14.3%
65 | CCn1cc(C(=O)NCCc2ccc(OC)c(OC)c2)c(=O)c2cc(S(=O)(=O)N3CCc4ccccc4C3)ccc21 | inactive: -9.42%
66 | Cc1ncc(CO)c2c1Oc1nc(-c3ccccc3F)nc(SCC(=O)N3CCCCC3)c1C2 | inactive: 7.16%
67 | COC(=O)c1ccccc1NC(=O)CN1C(=O)COc2ccccc21 | inactive: -3.43%
68 | COc1cccc2cc(-c3nc(Cl)c4c5c(sc4n3)CC(C)CC5)c(=O)oc12 (configuration not stated) | inactive: 4.8%
69 | COc1ccc(NC(=O)CSc2nc3c(c(=O)[nH]2)CN(Cc2ccccc2)CC3)cc1Cl | inactive: 37.1%
70 | CCc1ccc(NC(=O)Cn2c(=O)n(Cc3ccccc3)c(=O)c3oc4ccccc4c32)cc1 | inactive: 0.598%
71 | Cc1ccc(S(=O)(=O)c2cn(C)c3cc(N4CCCC4)c(F)cc3c2=O)c(C)c1 | inactive: -12.1%
72 | CCc1ccc(NC(=O)c2cnn(-c3c(C)cccc3C)c2C2CCNCC2)cc1 | inactive: -5.31%
73 | CCOc1cc(C(=O)Nc2c(NC)c3ccccc3oc2=O)cc(OCC)c1OCC | inactive: 3.54%
74 | COc1ccc(CCC(=O)NCc2nc3cccnc3n2Cc2ccccc2)cc1 | inactive: -20.7%
75 | CC1Cc2cc(S(=O)(=O)CCC(=O)Nc3ccc(Cl)cc3F)ccc2N1C(=O)C1CC1 (configuration not stated) | inactive: 8.85%
76 | CC(C)Oc1ccc(C(=O)Nc2ccc(-c3nc4ccccc4s3)cc2)cc1 | inactive: 5.64%
77 | COc1ccc(CCNC(=O)CCc2c(C)c3cc4c(C)coc4cc3oc2=O)cc1 | inactive: 33.8%
78 | Cc1ccccc1Cn1c(CN2CCN(c3cc(Cl)ccc3C)CC2)nc2c1c(=O)[nH]c(=O)n2C | inactive: -21.3%
79 | O=c1cc[nH]c(=O)[nH]1 | inactive: 44.7%
80 | COc1ccccc1C(=O)Nc1cc(-c2ccc(C)cc2)no1 | inactive: 7.4%
81 | CCOc1ccc(CCNC(=O)CCn2c(=O)c3cccn3c3cccnc32)cc1 | inactive: 3.23%
82 | Cc1ccc(Cl)cc1NC(=O)CCCN1C(=O)CCn2nc(-c3cn(C)c4ccccc34)cc21 | inactive: 4.34%

From PubChem BioAssay AID1346428 (National Center for Advancing Translational Sciences (NCATS), 2018)
